B1: Ydj1; a variant is named by its letters at X, in order (parent)
chain: MVKETKFYDILGVPVTATDVEIKKAYRKCALKYHPDKNPSEEAAEKFKEASAAYEILSDPEKRDIYDQFGEDGLSGAGGAGGFPGGGFGFGDDIFSQFFGAGGAQRPRGPQRGKDIKHEISASLEELYKGRTAKLALNKQILCKECEGRGGKKGAVKKCTSCNGQGIKFVTRQMGPMIQRFQTECDVCHGTGDIIDPKDRCKSCNGKKVENERKILEVHVEPGMKDGQRIVFKGEADQAPDVIPGDVVFIVSERPHKSFKRDGDDLVYEAEIDLLTAIAGGEFALEHVSGDWLKVGIVPGEVIAPGMRKVIEGKGMPIPKYGGYGNLIIKFTIKFPENHFTSEENLKKLEEILPPRIVPAIPKKATVDECVLADFDPAKYNRTRASRGGANYDSDEEEQGGEGVQCXXX

The text below walks through data of the supplement of paper PMC10320760.

The data scatter; read single values as rough.

Variants of B1 are the subject of the data set. Kind of data set: enrichment factor, frequency at 37 °C / frequency at 25 °C (thermotolerance selection) (ratio); higher = more growth at 37 °C, higher likelihood of farnesylation. The following applies: with Saccharomyces cerevisiae ydj1Δ (yWS304); selective temperature 37 °C; reference temperature 25 °C. The method, then: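 Pooled library of all 8,000 Ydj1-CXXX C-terminal motif variants (native CASQ replaced by C + three variable residues, one codon per amino acid) expressed from a CEN plasmid in S. cerevisiae ydj1Δ (yWS304). The library was grown in SC-Ura liquid to A600 ~2 (~8 generations) at permissive 25 °C or selective 37 °C. Reads from 8 and 7 replicates were pooled and variants counted by NGS. Enrichment factor = frequency at 37 °C / frequency at 25 °C, with a +1 correction; it reports Ydj1-dependent thermotolerance, used as a read-out of farnesylation by yeast FTase.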
Turning to LKE, the enrichment factor turned out to be 0.143.

On to LKL, for which the enrichment factor was 0.369.

In the case of LKR, the enrichment factor stood at 0.149.

With LKD, the enrichment factor turned out to be 0.29.

As to LKN, the enrichment factor worked out at 0.229.

As for LKF, the enrichment factor stood at 0.0876.

Regarding LKI, the enrichment factor turned out to be 0.136.

For LKG, the enrichment factor is 0.174.

Turning to LKC, the enrichment factor was determined as 0.251.

With LKA, the enrichment factor turned out to be 0.255.

With LKM, the enrichment factor was 0.747.

On to LKQ, for which the enrichment factor came out at 1.17.

In the case of LKS, the enrichment factor stood at 0.452.

As for LKP, the enrichment factor was 0.167.

On to LKH, for which the enrichment factor turned out to be 0.151.

In the case of LKK, the enrichment factor came to 0.188.

On to PIY, for which the enrichment factor came out at 1.19.

As for QIY, the enrichment factor amounted to 1.47.

As for VIY, the enrichment factor turned out to be 0.988.

For EIY, the enrichment factor was 0.98.

For the variant WKL, the enrichment factor is 0.954.

In the case of WKF, the enrichment factor was 1.18.

WKH: the enrichment factor was found to be 0.455.

Consider WKC, for which the enrichment factor is 0.169.

As for WKE, the enrichment factor came to 0.781.

WKA: the enrichment factor is 0.909.

Regarding WKR, the enrichment factor was found to be 0.16.

WKI: the enrichment factor was 1.09.

Regarding WKK, the enrichment factor was 0.0688.

As for WKM, the enrichment factor was found to be 1.16.

With WKD, the enrichment factor is 0.161.

For WKP, the enrichment factor was determined as 0.72.

As for WKN, the enrichment factor amounted to 1.03.

Take WKG: the enrichment factor was 0.945.

Regarding WKQ, the enrichment factor was found to be 1.24.

On to SIY, for which the enrichment factor came out at 1.33.

IIY: the enrichment factor was found to be 1.37.

On to TKN, for which the enrichment factor was determined as 0.0693.

In the case of TKI, the enrichment factor amounted to 0.0837.

For the variant TKA, the enrichment factor came out at 0.114.

With TKE, the enrichment factor worked out at 0.209.

Take TKQ: the enrichment factor came to 1.31.

In the case of TKR, the enrichment factor was 0.133.

As for TKP, the enrichment factor turned out to be 0.133.

On to TKM, for which the enrichment factor is 0.636.

In the case of TKC, the enrichment factor is 0.146.

For the variant TKH, the enrichment factor stood at 0.173.

With TKF, the enrichment factor came to 0.214.

For TKG, the enrichment factor was 0.0982.

Turning to TKK, the enrichment factor was found to be 0.13.

On to TKL, for which the enrichment factor was 0.198.

In the case of TKD, the enrichment factor came to 0.129.

On to KIY, for which the enrichment factor came to 4.25.

Take NIY: the enrichment factor was determined as 1.79.

Turning to NKP, the enrichment factor was found to be 0.196.

NKL: the enrichment factor was determined as 0.156.

Regarding NKH, the enrichment factor is 0.226.

With NKS, the enrichment factor is 0.18.

In the case of NKE, the enrichment factor was determined as 0.124.

As for NKR, the enrichment factor came to 0.0616.

Consider NKF, for which the enrichment factor was 0.287.

Regarding NKM, the enrichment factor was determined as 0.178.

With NKK, the enrichment factor came out at 0.262.

NKN: the enrichment factor is 0.101.

As to NKG, the enrichment factor was 0.0681.

Turning to NKQ, the enrichment factor is 0.261.

Take NKI: the enrichment factor amounted to 0.134.

Take NKD: the enrichment factor worked out at 0.121.

As for NKC, the enrichment factor is 0.0782.

NKA: the enrichment factor was 0.0891.

YIY: the enrichment factor was determined as 2.9.

As for WIY, the enrichment factor turned out to be 1.16.

With HKE, the enrichment factor was found to be 0.0939.

On to HKL, for which the enrichment factor is 0.158.

Turning to HKN, the enrichment factor was found to be 0.0822.

In the case of HKM, the enrichment factor was found to be 0.469.

On to HKI, for which the enrichment factor was found to be 0.0998.

For HKP, the enrichment factor was 0.318.

Consider HKG, for which the enrichment factor worked out at 0.0763.

With HKC, the enrichment factor stood at 0.16.

Turning to HKA, the enrichment factor was found to be 0.153.

On to HKK, for which the enrichment factor came out at 0.219.

On to HKF, for which the enrichment factor worked out at 0.22.
